Source: PubChem BioAssay AID1671188 (National Center for Advancing Translational Sciences (NCATS), 2021)
The whole screen tested about 100,000 compounds, of which about 250 (0.25%) were called active. Inconclusive means that the source gave no clear call. Such entries were picked first, then a sample of the others. Calls follow the shape of the dose curve; as a rule, active = well fitted inhibition curve with a large enough effect; inconclusive = small, poorly fitted or top-dose-only effect; inactive = flat fitted curve, though single readings scatter. No potency is given beside an inconclusive call; the fits are too rough.

Target: Alanine aminotransferase 2 (Homo sapiens) (UniProt Q8TD30)
Assay: Primary qHTS assay for inhibitors of Glutamate pyruvate transaminase 2 (GPT2); also: nearly all actives have a fitted effect of over 60% in size
Details: Recombinant GPT2, coupled pyruvate oxidase/HRP Amplex Red fluorescence; activity change, negative = inhibition: at 57.7 µM (top of the series) unless noted; series mostly up to 57.7 µM
Method in brief: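 Fluorescence of coupled pyruvate oxidase/HRP/Amplex Red system (50uM Amplex, 30 min, dark) reports pyruvate formed by GPT2. Enzyme reaction: 10ng/uL GPT2, 2mM L-alanine, 250uM a-KG, 30 min room temperature, pH 7.5; 50uM AOA control.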
% is scaled to controls: 0 for no effect and ±100 for the full control effect; potency is read from the fitted curve at half-maximal effect; tags tell the direction and shape of the fitted curve.

UniProt Q8TD30, sequence (Q8TD30 whole entry, looked up): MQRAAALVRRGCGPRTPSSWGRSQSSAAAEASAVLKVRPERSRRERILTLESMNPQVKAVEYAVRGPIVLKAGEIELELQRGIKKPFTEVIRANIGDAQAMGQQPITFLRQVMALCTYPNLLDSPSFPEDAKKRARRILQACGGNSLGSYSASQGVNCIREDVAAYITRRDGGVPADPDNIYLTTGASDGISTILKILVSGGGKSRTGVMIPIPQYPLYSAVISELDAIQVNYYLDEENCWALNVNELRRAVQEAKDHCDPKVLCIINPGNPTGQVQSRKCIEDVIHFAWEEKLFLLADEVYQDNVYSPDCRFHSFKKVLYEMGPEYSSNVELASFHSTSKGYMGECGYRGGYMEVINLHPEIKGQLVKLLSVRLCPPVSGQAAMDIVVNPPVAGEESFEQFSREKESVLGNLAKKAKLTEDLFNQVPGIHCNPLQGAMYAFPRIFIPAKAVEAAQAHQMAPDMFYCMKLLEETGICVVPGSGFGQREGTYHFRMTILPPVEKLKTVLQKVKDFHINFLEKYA

Row | SMILES | Potency | outcome | activity change, negative = inhibition
1 | COc1ccc(C(=O)N2CCCN(c3cc(-c4ccc(C)c(C)c4)[nH]n3)CC2)cc1OC | inconclusive [inhibitor, single point] |  | 
2 | O=C(c1ccc(Cl)s1)N1CCC2(CC1)CN(c1ccncn1)CC2CO (stereo not given) |  | inactive | 
3 | Cc1ccc(NC(=O)[C@H]2CN(Cc3ccccc3)C[C@H]2C(=O)O)cc1 | inconclusive [inhibitor, single point] |  | 
4 | Cn1nc(C2CCCNC2)c2c(C(=O)NCC(F)(F)F)cc(C3CC3)nc21 (stereo not given) | inconclusive [inhibitor, single point] |  | 
5 | CC[C@H]1CN(C(C)=O)CC[C@H]1CC(=O)Nc1ccccc1 | inconclusive [inhibitor, full curve, poor fit] |  | 
6 | CCN1c2cc(C(=O)NCc3cccc(Cl)c3)ccc2C(=O)N2CCCCC21 (stereo not given) |  |  | inactive: -0.642%
7 | NC(=O)[C@@H]1C[C@H]2CN(c3ccccc3)C(=O)c3cccc(c32)N1C(=O)C1CCC1 | inconclusive [inhibitor, single point] |  | 
8 | CCc1ccccc1NC(=O)CN1C(=O)C(c2ccccc2)=NC12CCCC2 |  | inactive | 
9 | Cc1ccc(C2Cn3nnc(C(=O)N4CCC(C(=O)NCC(C)C)CC4)c3CO2)cc1 (stereo not given) |  |  | inactive: 1.06%
10 | NCc1cccc(-c2cccs2)c1 |  |  | inactive: 2.8% [at 88.5 µM]
11 | O=C(NCc1ccccn1)C1CCCN(c2ccnc3ccnn23)C1 (stereo not given) |  |  | inactive: -57.1%
12 | CN(C)C[C@@H]1CN(c2ccncn2)C[C@H]1NC(=O)COc1ccc(Cl)cc1 | inconclusive [inhibitor, single point] |  | 
13 | CCC(CC)CN1CCOCCNC(=O)CC1 |  |  | inactive: -11%
14 | O=C1CCN(Cc2cccc(F)c2)CCOCCN1 | inconclusive [inhibitor, single point] |  | 
15 | Cc1noc(Cc2c(C)nn(-c3ccccc3)c2C)n1 | inconclusive [inhibitor, full curve, poor fit] |  | 
16 | COc1cncc(Nc2cnc3ccc(-c4ccc(OC)nc4)nn23)c1 | inconclusive [inhibitor, partial curve] |  | 
17 | Cc1ccc(C(=O)N2CCCC3(C2)Nc2cccnc2NC3=NCc2ccccc2)cn1 (stereo not given) | inconclusive [inhibitor, single point] |  | 
18 | COc1ccc(-n2nc(C3CCCN(C(=O)Cc4ccccn4)C3)[nH]c2=O)cc1 (stereo not given) | inconclusive [inhibitor, partial curve, poor fit] |  | 
19 | CNC(=O)[C@@H]1CN(C(=O)c2cnc(C)cn2)C[C@H]1c1n[nH]c(C)n1 | inconclusive [inhibitor, full curve, poor fit] |  | 
20 | Cc1nc(CN2C[C@H](C(=O)NCc3ccc4c(c3)OCO4)C[C@@H]2c2ccc(F)cc2)cs1 | inconclusive [inhibitor, single point] |  | 
21 | CCN1c2cc(C(=O)NCc3ccc(Cl)cc3)ccc2C(=O)N2CCCCC21 (stereo not given) |  | inactive | 
22 | COc1cccc(NC(=O)c2cnc3c(c2)N(C(=O)Cc2ccc(C(C)C)cc2)CCC3)c1 |  |  | inactive: -4.92%
23 | c1cn(-c2ccc3ncsc3c2)c(-c2cc3n(n2)CCCNC3)n1 | inconclusive [inhibitor, single point] |  | 
24 | O=C(NCC1CCN(c2cc(-c3ccc(Cl)cc3)[nH]n2)CC1)c1ccc(=O)[nH]c1 | inconclusive [inhibitor, partial curve] |  | 

Row | SMILES | Potency | outcome | activity change, negative = inhibition
25 | O=C1CCCCC(Cc2ccccc2)(C(=O)NCc2ccc(Cl)cc2)N1 (stereo not given) | inconclusive [inhibitor, single point] |  | 
26 | CCn1ncc(NC(=O)Cn2ncc3cc(-c4ccc(C(=O)N(C)C)cc4)ccc32)n1 | inconclusive [inhibitor, single point] |  | 
27 | Cc1cnc(C(=O)N2CCOCC(CO)C2)cn1 (stereo not given) | inconclusive [inhibitor, full curve, poor fit] |  | 
28 | O=C(Nc1ccc(F)cc1)[C@@H]1C[C@@H](c2ccc(F)cc2)N([S+](=O)([O-])c2cccnc2)C1 | inconclusive [inhibitor, single point] |  | 
29 | O=C(c1ccc(C(F)(F)F)s1)N1CCc2c(nc(-c3ccccc3)[nH]c2=O)C1 | inconclusive [inhibitor, single point] |  | 
30 | O=C(c1ccc(C(F)(F)F)cc1)N1CC2(Cc3ccccc3NC2=O)C1 |  |  | inactive: 2.54%
31 | CN(C)c1nccnc1OC1CCN(C(=O)c2ccncc2)C1 (stereo not given) |  |  | inactive: 1.64%
32 | Cc1ccc(-c2cc(C(=O)NCCc3ccc(Cl)cc3)c3cnn(C)c3n2)cc1 | inconclusive [inhibitor, single point] |  | 
33 | CC(=O)N1CCC(C(=O)N2CCC(N3Cc4ccccc4C3=O)CC2)CC1 |  | inactive | 
34 | COc1ccccc1CN[C@H]1CC(C)(C)[C@@H]2C[C@@](C)(O)CC[C@]12CCC(=O)NCCc1c[nH]c2ccccc12 | inconclusive [inhibitor, partial curve, poor fit] |  | 
35 | CN(c1ccccc1)c1ccc2nnc(-c3ccccn3)n2n1 |  |  | inactive: -4.81% [at 88.5 µM]
36 | COc1c(C(C)C)c(O)c(O)c2c1C(OC)[C@H]1OC(=O)[C@@]23CCCC(C)(C)[C@H]13 (stereo not given in full) | inconclusive [inhibitor, single point] |  | 
37 | CCOC(=O)C1CCN(C(=O)c2cc3c(n2C)CCN(Cc2ccccc2)C3)CC1 |  |  | inactive: 2.68%
38 | Cc1noc(C)c1-c1cc2c(cc(-c3ccccc3)n2C)c(-c2cccnc2)n1 | inconclusive [inhibitor, single point] |  | 
39 | N#Cc1ccc(C(=O)N2CCC3(CC2)NC(=O)N(Cc2ccc(F)cc2)C3=O)cc1 |  | inactive | 
40 | CC(C)NC[C@H]1O[C@H](Cc2cc(CN(C)Cc3ccccc3)on2)CC[C@@H]1O | inconclusive [inhibitor, single point] |  | 
41 | CC(C)S(=O)(=O)N1CC(Oc2ccc(-c3noc(-c4cccnc4)n3)cc2)C1 |  |  | inactive: -10.9%
42 | COc1cccc(Nc2cnc3ccc(-c4ccc(F)cc4)nn23)c1 | inconclusive [inhibitor, full curve, poor fit] |  | 
43 | COc1cc2c(cc1C(=O)N1CCC3(CC1)c1nc[nH]c1CCN3C)CCC2 |  | inactive | 
44 | CSc1ccc(NC(=O)c2cc3c(s2)CN(C2CC2)C3)cc1 |  | inactive | 
45 | COCCN(C)C[C@H]1C[C@H](CO)CN(C(=O)c2cc3ccccc3s2)C1 | inconclusive [inhibitor, partial curve, poor fit] |  | 
46 | O=C1NC2(CCCN(Cc3cncs3)C2)Oc2ccccc21 (stereo not given) | inconclusive [inhibitor, single point] |  | 
47 | CSCCNC(=O)c1cc(-c2ccc(Cl)cc2Cl)nc2c1cnn2C |  |  | inactive: -3.9%
48 | COc1cccc(CNC(=O)c2ccc3oc(-c4cccnc4)nc3c2)c1 |  |  | inactive: -18.4%

Row | SMILES | Potency | outcome | activity change, negative = inhibition
49 | Cn1cc(C(=O)N2CCC3(CC2)CN(c2ncccn2)CC3CO)cn1 (stereo not given) | inconclusive [inhibitor, single point] |  | 
50 | CS(=O)(=O)Nc1ccc(C2(C(=O)NCc3ccc(Cl)cc3)CCCCC2)cc1 | inconclusive [inhibitor, partial curve, poor fit] |  | 
51 | C[C@@H]1O[C@@H](O[C@H]2[C@@H]3C=CO[C@@H](O[C@@H]4O[C@H](CO)[C@@H](O)[C@H](O)[C@H]4O)[C@@H]3[C@@]3(CO)O[C@@H]23)[C@H](O)[C@H](OC(=O)/C=C/c2ccc(O)c(O)c2)[C@H]1O | inconclusive [inhibitor, single point] |  | 
52 | C#CCNC(=O)[C@@H]1CCCN1c1nccc(Nc2ccccc2OC)n1 | inconclusive [inhibitor, full curve] |  | 
53 | CCNC(=O)N1CCC(c2nnc(CN3CCCC3)n2CC)CC1 |  |  | inactive: 3.37% [at 11.5 µM]
54 | O=C(c1ccccc1F)N1CCCC(c2nn(-c3ccccn3)c(=O)[nH]2)C1 (stereo not given) |  | inactive | 
55 | CCc1nc(-c2ccc(OC3CCN(C(=O)Cc4ccccc4F)C3)cc2)no1 (stereo not given) |  |  | inactive: -5.06%
56 | O=C(NCC(F)(F)F)c1cc(-c2cccc(C(F)(F)F)c2)c2cccn2n1 |  | inactive | 
57 | Oc1ccc(-c2nc(-c3ccc(F)cc3)c(-c3ccncc3)[nH]2)cc1 | inconclusive [inhibitor, single point] |  | 
58 | CC(C)C[C@H](NC(=O)Cn1nc2c(cc1=O)CCCCC2)c1nnc2ccccn12 | inconclusive [inhibitor, single point] |  | 
59 | COc1ccc2c(c1)CCc1c-2n[nH]c1C(=O)N1CCc2c(nc3cc(-c4ccccc4)[nH]n3c2=O)C1 |  | inactive | 
60 | Cc1ccc(Nc2ccnc(N3CCCC(C(=O)NC4CC4)C3)n2)cc1 (stereo not given) |  |  | inactive: 3.58% [at 88.5 µM]
61 | Cc1nn(-c2cccc(Br)c2)c(C)c1[C@@H]1C=C[C@@H](NC(=O)CC(C)(C)CC(=O)O)C1 |  |  | inactive: -3.69%
62 | COC(=O)[C@@H]1Cc2ncn(C)c2CN1S(=O)(=O)c1cccc(C(F)(F)F)c1 | inconclusive [inhibitor, full curve, poor fit] |  | 
63 | CCCCCCCC(=O)OCC(O)CO (stereo not given) | inconclusive [inhibitor, single point] |  | 
64 | CCN1C(=O)Cc2ccccc2C1C(=O)NCc1ccccc1Br (stereo not given) | inconclusive [inhibitor, single point] |  | 
65 | Cc1ccc(-c2ncc[nH]2)cc1NC(=O)c1ccc(OCc2ccccn2)cc1 |  |  | inactive: 3.28%
66 | COc1ccc([C@H]2CN(C(=O)C3CCN(C(=O)N(C)C)CC3)C[C@@H]2N)cc1 |  |  | inactive: -27%
67 | O=C(NC[C@H](O)CO)c1ccncc1Nc1ccc(I)cc1F |  | inactive | 
68 | O=C(NC1CCCCCC1)c1ccc2oc(-c3ccnc(Cl)c3)nc2c1 |  |  | inactive: -7.22%
69 | C=CCCC(CN1CCCOCC1)Oc1ccc2cccc(OC)c2n1 (stereo not given) |  |  | inactive: -2.52%
70 | COc1cccc(C(=O)N2C[C@@H](Oc3ccccc3)C[C@@H]2C(=O)N2CCOCC2)c1 | inconclusive [inhibitor, full curve, poor fit] |  | 
